Counter-ions that a name gives are not always drawn. This is one part of the list. Rule as the data show it: active = 0.5 or less and inactive = the rest. Most values come without repeats; read them as rough.
The compounds below were run on HeLa VPS33A R498W KI + HA-SDC1-FLAG (assay: relative GAG core protein HA-SDC1 amount per cell number vs DMSO (fraction of DMSO); HeLa model of a glycosaminoglycan (GAG) storage disease; KI is knock-in and KO knock-out; SDC1 is syndecan 1; higher = more SDC1 (GAG core protein)). Settings: 50 µM; 24 h.
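Also: HA-SDC1 level read out by In-Cell Western staining with an anti-HA antibody against the N-terminal tag, screening FDA-approved library drugs.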

| Compound | relative GAG core protein HA-SDC1 amount per cell number |
| --- | --- |
| CN(C)C(=O)N[C@H]1CC[C@H](CCN2CCN(c3cccc(Cl)c3Cl)CC2)CC1 [Cariprazine] | inactive: 0.684 |
| CCS(=O)(=O)CCn1c([N+](=O)[O-])cnc1C [Tinidazole] | inactive: 0.842 |
| CCOC(=O)[C@H](CCc1ccccc1)N[C@@H](C)C(=O)N1CCC[C@H]1C(=O)O [Enalapril Maleate] | inactive: 0.913 |
| C[C@@H]1O[C@@H](OC[C@H]2O[C@@H](Oc3c(-c4ccc(O)c(O)c4)oc4cc(O)cc(O)c4c3=O)[C@H](O)[C@@H](O)[C@@H]2O)[C@H](O)[C@H](O)[C@H]1O [Rutin] | inactive: 0.96 |
| OCC(CO)N[C@H]1C[C@](O)(CO)[C@@H](O)[C@H](O)[C@H]1O [Voglibose] | inactive: 0.878 |
| CCN1CCN(c2cc(-c3ccc(F)cc3)c3c(n2)CCCCCC3)CC1 [Blonanserin] | inactive: 0.875 |
| C[C@@H]1NC(=O)[C@@H](N)CNC(=O)[C@H](C2CCNC(=N)N2)NC(=O)/C(=C/NC(N)=O)NC(=O)[C@H](CNC(=O)CC(N)CCCN)NC1=O.N=C1NCC[C@H]([C@@H]2NC(=O)/C(=C/NC(N)=O)NC(=O)[C@H](CNC(=O)C[C@@H](N)CCCN)NC(=O)[C@H](CO)NC(=O)[C@@H](N)CNC2=O)N1 [Capreomycin Sulfate] | inactive: 1.32 |
| Cc1ncc(C[n+]2csc(CCO)c2C)c(N)n1 [Thiamine HCl (Vitamin B1)] | inactive: 0.878 |
| Cc1nc(NC(=O)N2CCC[C@H]2C(N)=O)sc1-c1ccnc(C(C)(C)C(F)(F)F)c1 | inactive: 0.568 |
| Cc1ccc2c(c1)c1c(n2CCc2ccc(C)nc2)CCN(C)C1 [Latrepirdine] | active: 0.263 |
| CC[N+](C)(C)c1cccc(O)c1 [Edrophonium (chloride)] | inactive: 0.817 |
| OC[C@H]1O[C@@](CO)(O[C@H]2O[C@H](CO)[C@@H](O)[C@H](O)[C@H]2O)[C@@H](O)[C@@H]1O [sucrose] | inactive: 1.02 |
| C=C[C@H]1CN2CC[C@H]1C[C@H]2[C@H](O)c1ccnc2ccc(OC)cc12 [Quinine] | inactive: 0.651 |
| CCn1cc(C(=O)O)c(=O)c2ccc(C)nc21 [Nalidixic acid] | inactive: 0.874 |
| CO/N=C(\C(=O)N[C@@H]1C(=O)N2C(C(=O)O)=C(CSC(=O)c3ccco3)CS[C@H]12)c1csc(N)n1 [Ceftiofur HCl] | inactive: 0.966 |
| Cc1onc(-c2ccccc2)c1C(=O)N[C@@H]1C(=O)N2[C@@H]1SC(C)(C)[C@@H]2C(=O)O [Oxacillin sodium monohydrate] | inactive: 0.99 |
| Oc1cc(O)c(Cl)cn1 [Gimeracil] | inactive: 0.93 |
| CC(C)NCC(O)COc1cccc2ccccc12 (stereo not drawn) [Propranolol HCl] | active: 0.443 |
| C[C@H](N)C(=O)O [L-Alanine] | inactive: 0.993 |
| COc1cc(C2Oc3cc([C@H]4Oc5cc(O)cc(O)c5C(=O)[C@@H]4O)ccc3OC2CO)ccc1O (stereo partly drawn) [Silymarin] | inactive: 0.902 |
| N[C@@H](Cc1cc(I)c(Oc2ccc(O)c(I)c2)c(I)c1)C(=O)O [Liothyronine Sodium] | inactive: 0.653 |
| N[C@@H]1CN(c2c(F)cc3c(=O)c(C(=O)O)cn([C@@H]4C[C@@H]4F)c3c2Cl)CC12CC2 [Sitafloxacin Hydrate] | inactive: 0.794 |
| C=C[C@]1(C)C[C@@H](OC(=O)CS[C@@H]2C[C@H]3CC[C@@H](C2)N3C)[C@]2(C)[C@H](C)CC[C@]3(CCC(=O)[C@H]32)[C@@H](C)[C@@H]1O [Retapamulin] | active: 0.451 |
| CCCCCCCN(CC)CCCC(O)c1ccc(NS(C)(=O)=O)cc1 (stereo not drawn) [Ibutilide Fumarate] | inactive: 0.916 |
| CC(C)(C)NCC(O)c1ccc(O)c(CO)c1 (stereo not drawn) [Salbutamol Sulfate] | inactive: 1.37 |
| CC(C)c1nc(N(C)S(C)(=O)=O)nc(-c2ccc(F)cc2)c1/C=C/[C@@H](O)C[C@@H](O)CC(=O)O [Rosuvastatin] | inactive: 0.804 |
| CC(=O)[C@H]1CC[C@H]2[C@@H]3C=CC4=CC(=O)CC[C@@]4(C)[C@@H]3CC[C@]12C [Dydrogesterone] | inactive: 0.668 |
| CC(=O)Oc1cc(C(F)(F)F)ccc1C(=O)O [Triflusal] | inactive: 0.937 |
